# Measurements: the supplement of paper PMC11880418
# Counter-ions that a name gives are not always drawn. The list shows a part of the results. The data scatter; read single values as rough.
# Test system: MKN45
# Experiment: ALDHbr (CSC) cell proportion score relative to DMSO vehicle (ratio to DMSO); breast (SUM159) / gastric (MKN45) / pancreatic (PANC1) / colon cancer lines; ALDHbr cells have high ALDH activity and are rich in cancer stem cells (CSC); higher = more CSC (ALDHbr) cells remaining
# Details: 10 µM; 72 h
# 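Also: High-content imaging of ALDEFLUOR-stained cells with Hoechst-labelled nuclei in 384-well plates, triplicate wells, scored as Z-score against 0.1% DMSO vehicle, negative meaning fewer ALDHbr cells.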
row,SMILES,ALDHbr
1,CCCC(=O)Nc1ncnc2c1ncn2[C@@H]1O[C@@H]2COP(=O)(O)O[C@H]2[C@H]1OC(=O)CCC [Bucladesine sodium salt],0.829
2,CCOC(=O)NNc1nncc2ccccc12 [Todralazine hydrochloride],1.25
3,COc1ccccc1OCC(O)CO (centres undefined) [Guaifenesin],0.964
4,Nc1nc2n[nH]nc2c(=O)[nH]1 [Azaguanine-8],0.596
5,O=C(NC(Cc1cc(=O)[nH]c2ccccc12)C(=O)O)c1ccc(Cl)cc1 (centres undefined) [Rebamipide],0.925
6,Cc1ccsc1/C=C/C1=NCCCN1C [Morantel tartrate],1.15
7,Cc1[nH]cnc1CN1CCc2c(c3ccccc3n2C)C1=O [Alosetron hydrochloride],1.29
8,Nc1nc(=O)[nH]cc1F [Flucytosine],1.06
9,Nc1cc(C(Cl)=C(Cl)Cl)c(S(N)(=O)=O)cc1S(N)(=O)=O [Clorsulon],0.968
10,COCCCC/C(=N\OCCN)c1ccc(C(F)(F)F)cc1 [Fluvoxamine maleate],0.736
11,Nc1ccc(S(=O)(=O)NC(=O)c2ccccc2)cc1 [Sulfabenzamide],1.3
12,CN1CCC[C@@H]1CCO[C@](C)(c1ccccc1)c1ccc(Cl)cc1 [Clemastine fumarate],0.768
13,Cn1c(=O)c2nc[nH]c2n(C)c1=O [Theophylline monohydrate],0.879
14,CC1(C)S[C@@H]2[C@H](NC(=O)[C@H](C(=O)O)c3ccsc3)C(=O)N2[C@H]1C(=O)O [Ticarcillin sodium],1.01
